This note sets out measurements from the supplement of paper PMC4166925.

± gives the standard deviation of the averaged measurements. Whole data set: some 33,000 sequences, median “E-score (dimensionless, -0.5 to 0.5)” near -0.046, cut for the highest 2% near 0.36. The list shows a part of the results.

The test deals with T1, SpTbr T-box DNA-binding domain (GST fusion).
T1 sequence: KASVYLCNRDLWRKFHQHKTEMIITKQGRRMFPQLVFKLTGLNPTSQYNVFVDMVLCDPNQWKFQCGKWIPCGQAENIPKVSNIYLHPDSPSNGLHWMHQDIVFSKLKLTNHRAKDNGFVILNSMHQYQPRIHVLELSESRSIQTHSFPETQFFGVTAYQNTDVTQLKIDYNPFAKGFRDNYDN
Briefly: PBM E-score of 8-mer (E-score (dimensionless, -0.5 to 0.5)); Tbr is Tbrain of the sea star Patiria miniata (Pm) or the sea urchin Strongylocentrotus purpuratus (Sp); higher = stronger binding preference; most listed sequences are background and not binding sites. As to conditions: the construct has about 5 more residues each side. Put shortly:
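Using the Universal PBM Analysis Suite, every ungapped 8-mer received an enrichment E-score averaged over duplicate arrays. Probe intensities came from double-stranded Universal Agilent oligonucleotide arrays incubated with 200 nM GST-fused Tbr T-box DNA-binding domain in PBS (pH 7.5). That protein was expressed in BL21 E. coli at 20 °C and purified by glutathione affinity chromatography.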
In the case of GGTTTTAA, the “PBM E-score of 8-mer” value is -0.049 ± 0.034. Regarding AGACCCTG, the “PBM E-score of 8-mer” value amounted to 0.025 ± 0.039. Then AACATGCA, with -0.115 ± 0.048. Then CCACTGCA, with -0.158 ± 0.016; and CAAGATGG, with 0.0383 ± 0.035; and CAAATTGG, with -0.0598 ± 0.074. AAATGGGA: the “PBM E-score of 8-mer” value was -0.255 ± 0.036.

On to GCGAAAAA, for which the “PBM E-score of 8-mer” value is 0.257 ± 0.076. As to AGACGGCC, the “PBM E-score of 8-mer” value was -0.227 ± 0.01. As for TCGATAAA, the “PBM E-score of 8-mer” value amounted to 0.0743 ± 0.099. Regarding CACTTTGG, the “PBM E-score of 8-mer” value stood at 0.176 ± 0.018. CATCTAAG: the “PBM E-score of 8-mer” value was -0.0428 ± 0.018. For the sequence AGACCTAC, the “PBM E-score of 8-mer” value was -0.161 ± 0.039.

With AGGGGTTA, the “PBM E-score of 8-mer” value was -0.0379 ± 0.026.

As to GCCTTCAC, the “PBM E-score of 8-mer” value was determined as 0.256 ± 0.022. In the case of CATTTGGA it was -0.127 ± 0.026. With AGAGTTCA, the “PBM E-score of 8-mer” value came out at 0.102 ± 0.054. Regarding AACATATA, the “PBM E-score of 8-mer” value is -0.166 ± 0.054.

For AGGGCTGG, the “PBM E-score of 8-mer” value is -0.253 ± 0.011. Regarding CTAAGTTC, the “PBM E-score of 8-mer” value was -0.145 ± 0.034. For the sequence GACCCGTC, the “PBM E-score of 8-mer” value turned out to be 0.118 ± 0.03. As for CGGGGGGA, the “PBM E-score of 8-mer” value is -0.183 ± 0.036. Turning to GGAGATCC, the “PBM E-score of 8-mer” value is -0.262 ± 0.025. As for AATGTCTA, the “PBM E-score of 8-mer” value is -0.137 ± 0.018. In the case of TTGCAAAA it was 0.0516 ± 0.071. CACCGACC: the “PBM E-score of 8-mer” value was determined as 0.0425 ± 0.027. As to CAAGCAAG, the “PBM E-score of 8-mer” value is -0.07 ± 0.011. With AATGTTAA, the “PBM E-score of 8-mer” value is -0.0502 ± 0.052. Regarding ACTGCGAT, the “PBM E-score of 8-mer” value is 0.117 ± 0.0014. Take AGACCGCA: the “PBM E-score of 8-mer” value was -0.231 ± 0.011. Turning to AGCTCCAA, the “PBM E-score of 8-mer” value is -0.217 ± 0.064. CCTGGCAA: the “PBM E-score of 8-mer” value is -0.0798 ± 0.0092. As to GGCCTCGA, the “PBM E-score of 8-mer” value is -0.151 ± 0.065. For the sequence ATTACCGC, the “PBM E-score of 8-mer” value is -0.0899 ± 0.022. In the case of GTCACTAA, the “PBM E-score of 8-mer” value came out at 0.261 ± 0.024. On to AGGCGCGA, for which the “PBM E-score of 8-mer” value stood at 0.471 ± 0.0037. For the sequence GCTTCCCC, the “PBM E-score of 8-mer” value is -0.0756 ± 0.059. As to ATCAACCC, the “PBM E-score of 8-mer” value was -0.0585 ± 0.0049. With TCAAGGGA, the “PBM E-score of 8-mer” value was -0.152 ± 0.026. For CATTTCCG, the “PBM E-score of 8-mer” value was -0.0659 ± 0.025. Regarding AAGGGTGC, the “PBM E-score of 8-mer” value is 0.33 ± 0.025. In the case of TAGTCTCA it was 0.0587 ± 0.025; in that of ACCCCACA, 0.26 ± 0.035.

In the case of CAAAAAGA, the “PBM E-score of 8-mer” value is -0.29 ± 0.045.

As to CGTTAGGC, the “PBM E-score of 8-mer” value turned out to be 0.0761 ± 0.053. As for ACCCAGAG, the “PBM E-score of 8-mer” value was -0.0586 ± 0.02. With CTACGACA, the “PBM E-score of 8-mer” value stood at 0.0692 ± 0.056.

CCCGCCAG: the “PBM E-score of 8-mer” value was found to be 0.129 ± 0.05. On to CTCGGAGC, for which the “PBM E-score of 8-mer” value was -0.168 ± 0.078. For the sequence AACCTACT, the “PBM E-score of 8-mer” value was -0.2 ± 0.031. As to CTACACAC, the “PBM E-score of 8-mer” value was determined as 0.226 ± 0.066. As for AATAAGCG, the “PBM E-score of 8-mer” value turned out to be 0.133 ± 0.049. On to CCCGTAGC, for which the “PBM E-score of 8-mer” value is -0.00901 ± 0.077. Consider AATTCACA, for which the “PBM E-score of 8-mer” value worked out at 0.297 ± 0.035. In the case of CAACGTTA it was 0.0311 ± 0.014; in that of GACGGGGC, -0.191 ± 0.0037. With GTATTCCA, the “PBM E-score of 8-mer” value was -0.17 ± 0.0078. On to CGAAGTGC, for which the “PBM E-score of 8-mer” value came to 0.272 ± 0.024. Take CCTAGGCG: the “PBM E-score of 8-mer” value was -0.0224 ± 0.056.

For TTACTAAA, the “PBM E-score of 8-mer” value was -0.1504 ± 0.00043.

On to ATAATGGA, for which the “PBM E-score of 8-mer” value is -0.0896 ± 0.058. For GTCAGAAA, the “PBM E-score of 8-mer” value is -0.086 ± 0.061. In the case of ACACAACC, the “PBM E-score of 8-mer” value turned out to be 0.072 ± 0.08. Take CATGATTC: the “PBM E-score of 8-mer” value was -0.136 ± 0.037.

In the case of GGCAAGTA, the “PBM E-score of 8-mer” value is -0.0202 ± 0.02. In the case of AATAAAAC it was 0.00677 ± 0.12; in that of CGTGCAGC, 0.0785 ± 0.043; in that of GGGGGCCA, -0.016 ± 0.048.

In the case of ATTACTAA, the “PBM E-score of 8-mer” value was -0.163 ± 0.074.

For ACCCATTC, the “PBM E-score of 8-mer” value is -0.15 ± 0.062. For the sequence ATACTATG, the “PBM E-score of 8-mer” value is -0.111 ± 0.086. In the case of ACATGCTG it was 0.0406 ± 0.061. Take CCTTAACG: the “PBM E-score of 8-mer” value is -0.0454 ± 0.1. Then AAATGCGG, with 0.0263 ± 0.025.

Consider CACCACCA, for which the “PBM E-score of 8-mer” value was 0.145 ± 0.0054. On to ACAATGTG, for which the “PBM E-score of 8-mer” value was found to be 0.315 ± 0.01. In the case of GTTTGAAA, the “PBM E-score of 8-mer” value is -0.106 ± 0.041.

Regarding CGCTTACC, the “PBM E-score of 8-mer” value stood at 0.027 ± 0.061. GCCACATA: the “PBM E-score of 8-mer” value was determined as 0.164 ± 0.021. In the case of ACATGCGT, the “PBM E-score of 8-mer” value was 0.0995 ± 0.026. With CGACGGAC, the “PBM E-score of 8-mer” value worked out at 0.064 ± 0.0015.

GATGTGTA: the “PBM E-score of 8-mer” value was 0.316 ± 0.016. In the case of CCATTGGA, the “PBM E-score of 8-mer” value was -0.0636 ± 0.036. Turning to CTTTGCGC, the “PBM E-score of 8-mer” value was 0.22 ± 0.034. CATTTCGC: the “PBM E-score of 8-mer” value is 0.198 ± 0.018.

In the case of ATCAAGCG, the “PBM E-score of 8-mer” value was 0.0706 ± 0.0077.
